From PubChem BioAssay AID652106 (National Center for Advancing Translational Sciences (NCATS), 2013)
About 500 (0.14%) of roughly 370,000 compounds were called active. This list was built around the results that the source calls inconclusive (neither active nor inactive); the mix of calls is not that of the screen. The call rests on the fitted dose curve; in most records, active means well fitted activation curve with a large enough effect; inconclusive means small, poorly fitted or top-dose-only effect; inactive means no such curve, though single readings can be large or run the other way. Potencies of inconclusive entries are left out as doubtful fits.
Potency means the concentration at half of the fitted maximal effect; tags describe the fitted curve by direction and shape.

Assay: qHTS of alpha-syn Inhibitors; further: nearly all actives have a fitted effect of over 65% in size; on growth rescue (activation): % of control where 0% means no effect
Settings: Yeast expressing alpha-synuclein, BacTiter-Glo, 24 h; Potency: growth rescue unless noted; growth rescue (activation): at 46.1 µM (top of the series) unless noted
Summary of the method: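 Galactose-induced alpha-syn yeast (OD600=0.02, raffinose-pregrown) + pinned cpd, 24 hr, 30 deg C; growth by BacTiter-Glo luminescence. Growth restoration scores as activation.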
With `COc1ccccc1OCCNS(=O)(=O)c1ccc2oc3ccccc3c2c1` the Potency was inconclusive [activator, single point]. With `CCCCC(=O)Nc1ccc(NC(=O)c2ccccc2OC)cn1` the “growth rescue (activation)” value was inactive: -1.11%. In the case of `CC(C)Nc1nc(Nc2ccc(F)cc2)c2sccc2n1`, the Potency is reported as inconclusive [activator, single point]. With `CC(=O)c1ccc(N2CCC(c3cc(-c4ccc(Cl)cc4)n[nH]3)CC2)c([N+](=O)[O-])c1` the “growth rescue (activation)” value was inactive: 3.65%. For `O=C(Cc1ccccc1)Nc1ccc(N2CCOCC2)cc1N1CCOCC1`, the “growth rescue (activation)” value was inactive: 5.94%. In the case of `O=C(NCc1ccccc1)C1Cc2c(-c3ccc(Cl)cc3)ccnc2O1` (stereo unspecified), the Potency is reported as inconclusive [activator, single point]. In the case of `Cc1ccccc1/C=C1\OC(=O)c2ccccc21`, the “growth rescue (activation)” value is reported as inactive: -0.936%. With `COCCCn1c(SCc2nnc(-c3ccc(OC)c(OC)c3)o2)nc2ccccc2c1=O` the Potency was inconclusive [activator, partial curve]. With `COc1ccc(Br)cc1S(=O)(=O)NCCc1cccs1` the Potency was inconclusive [activator, partial curve]. In the case of `O=C(NC(=S)N1CCc2ccccc21)c1ccc(Br)o1`, the Potency is reported as inconclusive [activator, single point]. For `Cc1ccc(CNC(=O)CCC2CCCN(Cc3cccc4ncccc34)C2)o1` (stereo unspecified), the Potency was inconclusive [activator, single point]. For `CC1(c2ccc(F)cc2)OC(=O)c2c1ccc1ccccc21` (stereo unspecified), the “growth rescue (activation)” value was inactive: -12.4%. In the case of `Cc1cccc(C)c1NC(=O)C1c2ccccc2OCC(=O)N1Cc1ccc2c(c1)OCO2` (stereo unspecified), the Potency is reported as inconclusive [activator, single point]. With `Oc1ccccc1N=Nc1ccccc1O` the Potency was active: 12.6 µM. With `Cc1ccc(NC(=O)[C@@]2(CC(=O)O)CC(/C=C/c3ccccc3)=NO2)c(C)c1` the Potency was inconclusive [activator, single point]. For `Cn1ccnc1C1CCCCN1C(=O)c1cc(COc2ccc(F)cc2F)on1` (stereo unspecified), the Potency was inconclusive [activator, single point]. For `C[C@]12c3[nH]c4cc(-c5ccco5)ccc4c3CCN1C(=O)[C@@H](CC(=O)NCC13CC4CC(CC(C4)C1)C3)C[C@@H]2C(=O)N1CCOCC1`, the Potency was inconclusive [activator, single point]. With `COC(=O)C1=C/CCCN(C(c2ccccc2)c2ccccc2)/C=C\1C(=O)OC` the Potency was inconclusive [activator, single point]. For `Cc1ccc(C(=O)n2nc(-c3cccnc3)nc2N)cc1`, the Potency was inconclusive [activator, single point]. For `CN=C(Nc1cc(Cl)ccc1Cl)SC1CC(=O)N(c2ccc(C(=O)OC)cc2)C1=O` (stereo unspecified), the Potency was inconclusive [activator, single point]. In the case of `CSc1ccc(NC(=O)C2(C)CCN2C(=O)c2ccccc2CCc2ccccc2)cc1` (stereo unspecified), the Potency is reported as inconclusive [activator, single point]. In the case of `COc1ccc(C2CCCCC2SCC(=O)O)cc1OC` (stereo unspecified), the Potency is reported as inconclusive [activator, single point]. With `CCCC(=O)NC(c1ccc(Cl)cc1Cl)c1ccc2cccnc2c1O` (stereo unspecified) the Potency was inconclusive [activator, single point]. With `CCCCn1nnnc1C(c1ccccc1)N1CCN(c2ccc(OC)cc2)CC1` (stereo unspecified) the “growth rescue (activation)” value was inactive: 1.27%. For `CCOC(=O)c1c(-c2ccccc2Cl)cn2ccccc12`, the “growth rescue (activation)” value was inactive: -2.12%. In the case of `CCOC(=O)C1CCN(C(=O)c2oc3ccc(S(=O)(=O)N4CC(C)CC(C)C4)cc3c2C)CC1` (stereo unspecified), the “growth rescue (activation)” value is reported as inactive: 3.36%. For `Cc1cc(Cl)ccc1OCC(=O)Nc1ccccc1CO`, the “growth rescue (activation)” value was inactive: 0.932%. For `CCOC(=O)C1=NN(C(=O)Cc2ccccc2)C(O)(c2ccc(Cl)cc2)C1` (stereo unspecified), the Potency was inconclusive [activator, single point]. In the case of `Cc1ccc(NC(=O)CN(C)C(=O)c2ccc3[nH]c4c(c3c2)CC(C)CC4)cc1` (stereo unspecified), the Potency is reported as inconclusive [activator, single point]. For `C[N+](C)(C)CC=O`, the Potency was inconclusive [activator, single point]. In the case of `Cc1cc(Cl)ccc1NC(=O)CS(=O)(=O)c1cccc2nsnc12`, the Potency is reported as inconclusive [activator, single point]. With `C1CCC(C(CC2CCCCN2)C2CCCCC2)CC1` (stereo unspecified) the Potency was inconclusive [activator, single point]. For `COc1ccc(C(=O)Nc2ncnc3nc[nH]c23)cc1`, the “growth rescue (activation)” value was inactive: -0.794%. With `C/C(=N\NC(=O)c1cc2ccccc2cc1O)c1ccccn1` the Potency was active: 10 µM. For `CNc1cncc(-c2ccc(OC)cc2)n1`, the Potency was inconclusive [activator, single point]. In the case of `S=C(Nc1ccccc1)N1CCc2ccccc21`, the “growth rescue (activation)” value is reported as inactive: 0.802%. With `COc1ccc(Cl)cc1Cn1c(C)c(C(=O)NCc2ccc(F)cc2)sc1=O` the Potency was inconclusive [activator, single point]. For `COc1ccccc1N1CCN(S(=O)(=O)c2cc(-c3cc(C)no3)ccc2C(C)C)CC1`, the Potency was inconclusive [activator, single point]. With `CCC1Nc2ncnc(N3CCCCC3)c2N(Cc2ccc(Br)cc2)C1=O` (stereo unspecified) the Potency was inconclusive [activator, single point]. In the case of `c1ccc(Cn2nnnc2C(c2cccnc2)N2CCN(c3ccccc3)CC2)cc1` (stereo unspecified), the Potency is reported as inconclusive [activator, partial curve]. For `COc1cc(/C=C/C(=O)Nc2nc3ccc(S(=O)(=O)N(C)C)cc3s2)cc(OC)c1OC`, the “growth rescue (activation)” value was inactive: 0.0856%. For `COc1ccc(-c2ccc([C@H]3[C@H]4C=CC[C@@H](C)[C@@H]4C(=O)N3Cc3ccccc3)c(F)c2)cc1C`, the “growth rescue (activation)” value was inactive: 3.37%. For `O=C(O)Cc1ccc2c(c1)Cc1cccnc1O2`, the Potency was inconclusive [activator, single point]. With `O=C(c1ccccc1)N1N=C(c2cccs2)CC1c1ccccc1O` (stereo unspecified) the Potency was inconclusive [activator, single point]. In the case of `O=Cc1ccc2ccc3cccnc3c2n1`, the Potency is reported as inconclusive [activator, single point]. With `CC(C)c1ccc(CN2CCC2(C)C(=O)Nc2ccc3c(c2)OCO3)cc1` (stereo unspecified) the Potency was inconclusive [activator, single point].
